Structures are written as SMILES. Hit rate of the full screen: of about 150,000 compounds, about 540 (0.36%) showed an effect of 50% or more. This is one part of the list.

A word on the % Inhibition: it is the change of the read-out against control, counted positive when it falls.

This experiment has as its system Plasmodium falciparum. The experiment in a line: Primary screen in NF54 nanoGlo assay, in single point, at 2uM, 72h; a lower Z score goes with more inhibition. Particulars: timepoint 72 hour. Type of experiment: functional, Erythrocyte.
Consider `COc1nc(C)c(C(=O)N2CCn3nc(CO)cc3C2)s1`, for which the “% Inhibition” value is -14% and the Z score was found to be 1.51.

Consider `CN(C(=O)Cn1cccc(S(=O)(=O)N2CCCC2)c1=O)C1CCCCC1`, for which the “% Inhibition” value was -8% and the Z score stood at 1.13.

For `Cc1cc(-c2ccccc2)n([C@H]2CCC[C@@H]2O)n1`, the “% Inhibition” value was -17% and the Z score worked out at 1.51.

In the case of `CNc1nc(NC(C2CC2)C2CC2)ncc1F`, the “% Inhibition” value was -5% and the Z score was determined as 0.52.

Turning to `NC(=O)CN1CCN(Cc2ncc(Cl)cc2Br)CC1=O`, the “% Inhibition” value is listed as -3% and the Z score was determined as 0.53.

For `Cc1ccc(C(C)(C)C(=O)N2C[C@@H]3CS(=O)(=O)C[C@@H]3C2)cc1`, the “% Inhibition” value is on record as 2% and the Z score is recorded as -0.33.

With `CCc1nc(CN2CC[C@H](O)CC(C)(C)C2)no1`, the “% Inhibition” value was -7% and the Z score was 0.94.

On to `Cc1ccc(C(=O)NCCCc2ccccc2)o1`, for which the “% Inhibition” value was -11% and the Z score is 1.35.

Turning to `CN1CCN2C[C@@H](NS(=O)(=O)c3cccc(C(=O)NC4CC4)c3)C[C@H]2C1`, the “% Inhibition” value was 2% and the Z score was -0.3.

As to `CN1C(=O)[C@@H]2CC[C@H]1CN(C(=O)Nc1ccccc1OCc1ccccc1)C2`, the “% Inhibition” value is listed as -16% and the Z score turned out to be 1.59.

On to `O=C(CC(=O)NCC(F)(F)F)NC[C@@H](c1cccc(Cl)c1)N1CCCC1`, for which the “% Inhibition” value is 0% and the Z score was 0.05.

Turning to `CC(=O)Nc1cc(Cl)c(O)c(Cl)c1Cl`, the “% Inhibition” value is listed as -10% and the Z score is recorded as 1.68.

On to `COc1cc(CNCc2ccccn2)cc(Br)c1OCc1cccnc1`, for which the “% Inhibition” value is recorded as -35% and the Z score was found to be 4.07.

On to `CC[C@H]1CCCN(S(=O)(=O)c2ccc3c(c2)CCC(=O)N3)C1`, for which the “% Inhibition” value is -9% and the Z score came out at 1.53.

Consider `COc1ccc(-n2nc(C)c3c(C(=O)N[C@@H](C)c4cccc(OC)c4)cc(C)nc32)cc1`, for which the “% Inhibition” value is recorded as 0% and the Z score is reported as 0.07.

Consider `Cc1conc1CNc1ccc(Br)c(C(F)(F)F)n1`, for which the “% Inhibition” value was -8% and the Z score is reported as 1.58.

Consider `O=C(Nc1cccnn1)N1CCC(Cc2cc(F)cc(F)c2)CC1`, for which the “% Inhibition” value was -3% and the Z score is 0.48.

Turning to `CC(C)n1c(N2CCCN(C(=O)CC3CCCCC3)CC2)cc(=O)n(C(C)C)c1=O`, the “% Inhibition” value is -3% and the Z score was found to be 0.59.

As to `Cc1cn2cc(Cc3nc(-c4cnn(CCF)c4)no3)nc2s1`, the “% Inhibition” value is reported as -5% and the Z score turned out to be 0.81.

As to `NC(=O)c1ccc(O[C@H]2CCOC2)nc1`, the “% Inhibition” value is on record as 1% and the Z score is -0.15.

`O=C(CNC(=O)NC1CC1)NCCc1cc(F)cc2c1OCOC2`: the “% Inhibition” value is on record as -2% and the Z score stood at 0.2.

Regarding `Cc1ccnc(OCC(=O)N2CCN(c3ccc(N4CCN(C)CC4)nn3)CC2)n1`, the “% Inhibition” value turned out to be 3% and the Z score is -0.58.

Take `Cc1ccc2cc1Oc1cccc(c1)CO[C@H]1CN(C(=O)c3cccc(CCC(C)(C)O)c3)C[C@@H]1NC(=O)CN(C)C2=O`: the “% Inhibition” value was -18% and the Z score was 2.25.

Consider `CC(C)(C)OC(=O)N1CCN(Cc2nnnn2C2CC2)C2(CCCCC2)C1`, for which the “% Inhibition” value is given as -9% and the Z score came to 1.46.

In the case of `COCc1noc(CN2CC[C@@]3(CCCOC3)C2)n1`, the “% Inhibition” value is reported as -10% and the Z score is given as 1.22.

`CC(=O)c1ccc(CNC(=O)[C@@H](C)Cc2c(C)n[nH]c2C)nc1C`: the “% Inhibition” value is recorded as -1% and the Z score came to 0.12.

Regarding `Cc1cc(C)n2cc(CN3CCN(Cc4cc(C)on4)CC3)nc2n1`, the “% Inhibition” value is -12% and the Z score was 1.9.

With `Cc1cc(C)cc(N2CCN(C(=O)NC[C@@]3(C)CCCO3)CC2=O)c1`, the “% Inhibition” value was -3% and the Z score is 0.64.

In the case of `Cc1c(N2C(=O)CN(CCc3ccccc3)C2=O)cccc1C(F)(F)F`, the “% Inhibition” value was found to be 12% and the Z score is -1.12.

In the case of `C[C@H](NCC(=O)Nc1ccncc1)c1cccc(Br)c1`, the “% Inhibition” value was 6% and the Z score is -0.68.

Regarding `Cc1noc(C)c1C(=O)O[C@@H](C)C(=O)Nc1ccc2c(c1)OCCO2`, the “% Inhibition” value is given as -14% and the Z score is 1.31.

For the compound `FC(F)(F)CNC1CC(Nc2cnccn2)C1` (centres undefined), the “% Inhibition” value is on record as -3% and the Z score is 0.48.

With `O=C(COc1ccccc1F)OCCN1CCCC1`, the “% Inhibition” value is listed as -7% and the Z score worked out at 1.01.

`OCCN1CCN(C2CCCCCC2)CC1`: the “% Inhibition” value was -9% and the Z score was 1.78.

In the case of `CC(C)[C@H](NCc1cccc(C#N)c1)[C@H](O)C(F)(F)F`, the “% Inhibition” value was -7% and the Z score amounted to 1.35.

For `COc1cccc(C)c1C(=O)N1CCC[C@H]1C(=O)N1CCCCC1`, the “% Inhibition” value was -9% and the Z score is recorded as 1.15.

With `CS(=O)(=O)N1CCN(C(=O)c2cc(-c3cccnc3)nc3ccccc23)CC1`, the “% Inhibition” value came to 1% and the Z score is recorded as -0.11.

On to `COc1ccc2cc1Oc1cccc(c1)CO[C@H]1CN(C(=O)c3cc(C)nc(C)c3)C[C@@H]1NC(=O)CN(C)C2`, for which the “% Inhibition” value is given as -4% and the Z score was found to be 0.89.

Take `CC(C)c1noc([C@H](C)N2CCCc3c(NC(=O)c4ccc(F)cc4)cccc32)n1`: the “% Inhibition” value is -13% and the Z score stood at 1.63.

Regarding `O=C(Nc1nc(-c2ccc(Cl)cc2)cs1)[C@@H]1CCCO1`, the “% Inhibition” value is listed as -8% and the Z score is on record as 1.15.

With `Cc1nc(Oc2ccc(-c3ccccc3)cc2Cl)c2cnn(C)c2n1`, the “% Inhibition” value is reported as -6% and the Z score is on record as 0.79.

With `O=C(N[C@@H](Cc1ccccc1)c1nnc(N2CCCCCC2)o1)c1cccs1`, the “% Inhibition” value is recorded as -16% and the Z score turned out to be 2.63.

(Values after ChEMBL document CHEMBL4888484, “Replenishing the malaria drug discovery pipeline: Screening and hit evaluation of the MMV Hit Generation Library 1 (HGL1) against asexual blood stage Plasmodium falciparum ,using a nano luciferase reporter read-out” (2022).)
